“And” between values parts separate entries of the source, which are not always exact repeats. Equal values may be shown once. Hit rate of the full screen: of about 230,000 compounds, about 3,600 (1.6%) were called active. This list was built around the results that the source calls inconclusive (neither active nor inactive); the mix of calls is not that of the screen. Calls follow the shape of the dose curve; as a rule, active = well fitted inhibition curve with a large enough effect (not every such curve was filed as active); inconclusive = small, poorly fitted or top-dose-only effect, or another doubt; inactive = no such curve, though single readings can be large or run the other way. Potencies of inconclusive entries are doubtful fits and often do not repeat.
target: Lysine-specific demethylase 4E (Homo sapiens) (UniProt B2RXH2); assay: qHTS Assay for Inhibitors of Human Jumonji Domain Containing 2E (JMJD2E); conditions: JMJD2E catalytic domain, FDH-coupled NADH fluorescence (FDH is formaldehyde dehydrogenase); series mostly up to 57.1 µM; activity change, negative = inhibition: at the top concentration
Also: nearly all actives have a fitted effect of over 50% in size.
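For activity change, negative = inhibition in this document: 0% = wells with enzyme and -100% = buffer wells without enzyme.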
Potency is read from the fitted curve at half-maximal effect; tags tell the direction and shape of the fitted curve.

Chain of UniProt B2RXH2 (B2RXH2 whole entry, looked up, the tested form may be a part): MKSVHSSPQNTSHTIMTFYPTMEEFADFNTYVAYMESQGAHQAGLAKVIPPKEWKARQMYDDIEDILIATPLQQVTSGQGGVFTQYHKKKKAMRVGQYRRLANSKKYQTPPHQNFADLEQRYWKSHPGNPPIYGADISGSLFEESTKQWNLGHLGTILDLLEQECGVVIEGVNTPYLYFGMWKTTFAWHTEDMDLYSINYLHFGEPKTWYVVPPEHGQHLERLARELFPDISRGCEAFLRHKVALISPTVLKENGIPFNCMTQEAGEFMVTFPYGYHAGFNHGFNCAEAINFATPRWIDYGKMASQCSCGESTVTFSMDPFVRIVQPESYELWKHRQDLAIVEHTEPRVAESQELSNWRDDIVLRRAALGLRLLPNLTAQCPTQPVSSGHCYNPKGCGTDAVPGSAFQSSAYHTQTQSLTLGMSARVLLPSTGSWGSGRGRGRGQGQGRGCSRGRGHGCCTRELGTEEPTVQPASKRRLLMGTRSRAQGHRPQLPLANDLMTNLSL

SMILES	Potency	activity change, negative = inhibition
O=C(Cn1ncc2c3ccccc3n(Cc3ccccc3)c2c1=O)N1CCC2(CC1)OCCO2	inconclusive: 35.5 µM [inhibitor, partial curve]	
C=CCc1c(C)[nH]c(=S)c(C#N)c1C	inconclusive: 39.8 µM [inhibitor, single point]	
CCCCn1c(C)c(C(=O)O)c2cc(OC)ccc21	inconclusive: 25.1 µM [inhibitor, single point]	
Oc1ccc2c3c1O[C@H]1c4[nH]c5ccccc5c4C[C@]4(O)[C@H](C2)N(CC2CC2)CC[C@@]314		inactive: 9.32%
COc1ccc(Cl)cc1C(=O)C1CCCN(CCO)C1 (stereo unspecified)	inconclusive: 28.2 µM [inhibitor, partial curve]	
COc1cc(OC)c(OC)cc1/C=C1/C(=O)NC(=O)N(Cc2ccccc2)C1=O	inconclusive: 39.8 µM [inhibitor, single point]	
Cc1ccc(-c2ccc(=O)n(CCC(=O)N3CCC4(CC3)OCCO4)n2)cc1	inconclusive: 31.6 µM [inhibitor, single point]	
N#C/C(=C\c1ccc(O)c(O)c1)C(=O)NCCCNC(=O)/C(C#N)=C/c1ccc(O)c(O)c1	active: 3.55 µM	
O=C(O)Cn1cc(/C=C2\C(=O)NC(=O)N(Cc3ccco3)C2=O)c2ccccc21	inconclusive: 2.24 µM [inhibitor, partial curve]	
COC(=O)C1CN(C#N)N(c2ccc(Cl)cc2)C12c1ccccc1-c1ccccc12 (stereo unspecified)		inactive: 0.585%
CCOC(=O)C1SC2(C(F)(F)C(F)F)CC1(O)c1c(c(OC)c3occc3c1OC)O2 (stereo unspecified)		inactive: 4.78%
Cc1cccc(N2C(=O)NC(=O)/C(=C\c3ccc4c(c3)CCCN4Cc3ccccc3)C2=O)c1	inconclusive: 35.5 µM [inhibitor, single point]	
OCC[n+]1c2ccccc2nc2ccc(N3CCOCC3)cc21	inconclusive: 35.5 µM [inhibitor, single point]	
COC[C@H]1OC(=O)c2coc3c2[C@@]1(C)C1=C(C3=O)[C@H]2CCC(=O)[C@@]2(C)C[C@H]1OC(C)=O	active: 11.2 µM	
O=c1[nH]c(=O)n(-c2ccc(Cl)cc2)c(O)c1C=Nc1ccc(S(=O)(=O)Nc2nccs2)cc1	inconclusive: 39.8 µM [inhibitor, single point]	
CN1C[C@H](C(=O)N[C@@]2(C)O[C@@]3(O)C4CCCN4C(=O)C(Cc4ccccc4)N3C2=O)C[C@H]2c3cccc4[nH]cc(c34)C[C@H]21 (stereo partly specified)		inactive: -5.13%
O=C(CN1CC=C(c2ccccc2)CC1)Nc1cc(Cl)ccc1Cl	inconclusive: 22.4 µM [inhibitor, single point]	
Brc1c(NC2=NCCN2)ccc2nccnc12	active: 20 µM	
CCn1nc(-c2cccs2)nc2c(=O)n(C)c(=O)nc1-2	inconclusive: 35.5 µM [inhibitor, single point]	
CCCN1CCc2cccc3c2C1Cc1ccc(O)c(O)c1-3 (stereo unspecified)	inconclusive: 22.4 µM [inhibitor, partial curve]	
CCc1nc(N2CCNCC2)c(C#N)c2c1CSC(C)(C)C2	inconclusive: 31.6 µM [inhibitor, partial curve]	
Cc1ccc(-n2c(O)c(/C=N/N3CCOCC3)c(=O)[nH]c2=S)cc1		inactive: -1.97%

SMILES	Potency	activity change, negative = inhibition
O=C1NC(=O)N(Cc2ccc(F)cc2)C(=O)/C1=C\c1ccc(N2CCCC2)cc1		inactive: -26.3%
CCC(CO)NC(=O)C1C=C2c3cccc4[nH]cc(c34)CC2N(C)C1 (stereo unspecified)	inconclusive: 8.91 µM [inhibitor, full curve] and inconclusive: 28.2 µM [inhibitor, partial curve]	
COC1C(OC(=O)c2ccc(C)[nH]2)C(O)C(Oc2ccc3c(O)c(NC(=O)c4ccc(O)c(CC=C(C)C)c4)c(=O)oc3c2Cl)OC1(C)C (stereo unspecified)		inactive: -16.5%
O=C(N/N=C/c1c(O)n(Cc2ccc(F)cc2)c(=O)[nH]c1=O)c1ccccc1	inconclusive: 39.8 µM [inhibitor, single point]	
O=C(CSc1ccccn1)Nc1cccc2ccccc12	inconclusive: 39.8 µM [inhibitor, single point]	
CCN(CC)c1ccc(N=Cc2c(O)n(-c3ccccc3C)c(=O)[nH]c2=O)cc1		inactive: -25%
O=c1c2ccccc2nc(/C=C/c2ccc(O)cc2)n1-c1cccc(O)c1	inconclusive: 25.1 µM [inhibitor, single point]	
O=S1(=O)CCN(CCc2c[nH]c3ccccc23)CC1		inactive: 5.05%
CCCCn1c(NS(=O)(=O)c2ccccc2)c(C(=O)OCC)c2nc3ccccc3nc21	inconclusive: 35.5 µM [inhibitor, single point]	
CCOCCCNC(=O)C1c2cc(OC)c(OC)cc2C(=O)N2CCCCC12 (stereo unspecified)	inconclusive: 31.6 µM [inhibitor, single point]	
CCCCn1c(=O)c(C=Nc2ccc(Cl)cc2)c(O)n(Cc2ccco2)c1=O	inconclusive: 28.2 µM [inhibitor, partial curve]	
Cc1ccc(S(=O)(=O)NCC(=O)OCC(=O)N2N=C(c3ccc(Cl)cc3)CC2c2ccco2)cc1C (stereo unspecified)	inconclusive: 28.2 µM [inhibitor, partial curve]	
O=C1NC(=O)N(c2ccccc2)C(=O)/C1=C/c1ccc2c(c1)Cc1ccccc1-2	inconclusive: 28.2 µM [inhibitor, partial curve]	
Cc1cccc(-n2c(O)c(C=Nc3ccc(Br)cn3)c(=O)[nH]c2=O)c1	inconclusive: 31.6 µM [inhibitor, partial curve]	
CNC(=S)N(C)CCc1cc2c(c(OC)c1C=C1C(=O)NC(=O)NC1=O)OCO2	inconclusive: 31.6 µM [inhibitor, single point]	
CCn1c(O)c(C(c2ccccn2)c2c(O)n(CC)c(=S)[nH]c2=O)c(=O)[nH]c1=S	inconclusive: 31.6 µM [inhibitor, single point]	
O=c1c(O)c(-c2ccc(O)c(O)c2)oc2cc(O)cc(O)c12	active: 10 µM [middle of 4 runs]	
O=C(N/N=C/c1c(O)n(-c2ccccc2)c(=O)[nH]c1=O)c1ccncc1	inconclusive: 28.2 µM [inhibitor, partial curve]	
NC(=O)c1cccn(Cc2ccc(C(F)(F)F)cc2)c1=O	inconclusive: 28.2 µM [inhibitor, partial curve]	
CCCCCn1c(N)c(C(=O)NCCN2CCOCC2)c2nc3ccccc3nc21	inconclusive: 28.2 µM [inhibitor, partial curve]	
CCOP(=O)(OCC)C(NC(=O)c1cccc(C)c1)C(Cl)(Cl)Cl (stereo unspecified)		inactive: -7.33%
CC1(c2ccc(Cl)cc2Cl)OCC(Cn2cncn2)O1 (stereo unspecified)	inconclusive: 39.8 µM [inhibitor, single point]	

SMILES	Potency	activity change, negative = inhibition
CC1(C)C2CC=C(CN3CCC(O)CC3)C1C2 (stereo unspecified)	inconclusive: 39.8 µM [inhibitor, single point]	
C=CCNC(=S)/N=C/c1c(O)[nH]c(=O)[nH]c1=O	active: 2.51 µM	
C=CCn1c(O)c(C(CC)=Nc2ccccc2NC(C)=O)c(=O)[nH]c1=O		inactive: -2.36%
O=c1c(C=Nc2cccnc2Cl)c(O)n(CCCCl)c(=O)n1C1CCCCC1		inactive: 1.34%
Cc1cccc(CS(=O)(=O)Cc2ccc(C(=O)N3CCC4(CC3)OCCO4)o2)c1		inactive: -0.863%
Cc1ccc(C)c(OCC(=O)N2CCN(Cc3ccc4c(c3)OCO4)CC2)c1	inconclusive: 25.1 µM [inhibitor, single point]	
O=C1/C(=C/c2cc([N+](=O)[O-])ccc2Cl)N2CCC1CC2		inactive: -1.02%
COCCCNC(=O)c1c(NC(=O)c2ccccc2Cl)n(Cc2ccccc2)c2nc3ccccc3nc12	inconclusive: 3.55 µM [inhibitor, full curve]	
CCCCC(=O)N/N=C/c1c(O)n(CCC2=CCCCC2)c(=O)[nH]c1=O	inconclusive: 31.6 µM [inhibitor, single point]	
Cc1onc(-c2ccccc2)c1C(=O)Nc1ccc(S(=O)(=O)N2CCCC2)cc1	inconclusive: 31.6 µM [inhibitor, partial curve]	
Cc1c(CCN)ccc2c1[nH]c1ccccc12		inactive: -8.16%
CCCCn1cnc2cc(NCc3cccc(OC)c3O)ccc21	inconclusive: 31.6 µM [inhibitor, partial curve]	
C[C@@H]1O[C@H](O[C@H]2C[C@@H](O)[C@@]3(CO)[C@H]4[C@@H](O)C[C@]5(C)[C@@H](C6=CC(=O)OC6)CC[C@]5(O)[C@H]4CC[C@]3(O)C2)[C@@H](O)[C@H](O)[C@@H]1O		inactive: 5.41% [at 25.5 µM]
Cc1ccc(N2C(=O)NC(=O)/C(=C\c3cccn3C(C)(C)C)C2=O)cc1		inactive: -4.86%
CN1CCC(N(C)Cc2cccnc2)CC1	inconclusive: 39.8 µM [inhibitor, single point]	
COc1cc2[nH]c(=O)[nH]c(=O)c2cc1OC	inconclusive: 12.6 µM [inhibitor, partial curve]	
CCC(CO)(C(=O)OC1C[N+]2(C)CCC1CC2)c1ccccc1 (stereo unspecified)		inactive: -26.8%
O=C(Cn1nc(-c2ccc(Cl)cc2)ccc1=O)N1CCC2(CC1)OCCO2	inconclusive: 39.8 µM [inhibitor, single point]	
CCOC(=O)C1=C(N)Oc2ccccc2C12C(=O)N(CC(=O)OC)C(CC(=O)OC)=C2C(=O)OC (stereo unspecified)		inactive: -3%
Cc1cccn2c(=O)c3cc(C(=O)N4CCC5(CC4)OCCO5)n(C)c3nc12	inconclusive: 14.1 µM [inhibitor, partial curve]	
CN1C(=O)C(=Cc2coc3ccccc3c2=O)C(=O)N(C)C1=O		inactive: -11.3%
COc1ccc(OCC(=O)N2CCN(C3CCC(c4ccccc4)CC3)CC2)cc1 (stereo unspecified)	inconclusive: 28.2 µM [inhibitor, single point]	

Reference: PubChem BioAssay AID2147 (National Center for Advancing Translational Sciences (NCATS), 2009)
